Test results reported in the supplement of paper PMC4604168 (melanoma cell lines).
This is one part of the list. Single values are uncertain, as repeats are few or missing.

Key:
Test in all cases: cell count relative to DMSO control; melanoma cells; higher = more viable cells
Conditions in all cases: library dose: standard library concentration; 72 h
IST-MEL1 = tested on: IST-MEL1
LB2518-MEL = tested on: LB2518-MEL
LOXIMVI = tested on: LOXIMVI
MEL-HO = tested on: MEL-HO
MZ2-MEL = tested on: MZ2-MEL
MeWo = tested on: MeWo
RPMI7951 = tested on: RPMI7951
RVH-421 = tested on: RVH-421
SkMel28 = tested on: SkMel28
SkMel2 = tested on: SkMel2
SkMel30 = tested on: SkMel30
SkMel5 = tested on: SkMel5
UACC257 = tested on: UACC257
UACC62 = tested on: UACC62
WM115 = tested on: WM115
WM1716 = tested on: WM1716
WM1745 = tested on: WM1745
WM3526 = tested on: WM3526
WM3619 = tested on: WM3619
WM451Lu = tested on: WM451Lu
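Further: cells treated in 1,536-well plates, then fixed and DAPI-stained, with nuclei counted from automated high-throughput microscope images.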

Compound	cell count (IST-MEL1) [%]	cell count (LB2518-MEL) [%]	cell count (LOXIMVI) [%]	cell count (MEL-HO) [%]	cell count (MZ2-MEL) [%]	cell count (MeWo) [%]	cell count (RPMI7951) [%]	cell count (RVH-421) [%]	cell count (SkMel28) [%]	cell count (SkMel2) [%]	cell count (SkMel30) [%]	cell count (SkMel5) [%]	cell count (UACC257) [%]	cell count (UACC62) [%]	cell count (WM115) [%]	cell count (WM1716) [%]	cell count (WM1745) [%]	cell count (WM3526) [%]	cell count (WM3619) [%]	cell count (WM451Lu) [%]
O=C(O)C(=O)Nc1sc2c(c1C(=O)O)CCNC2 + Cc1cc([N+](=O)[O-])ccc1NS(=O)(=O)c1cc(Cl)ccc1Cl [FH535] (first compound 8.33333 µM, partner dose 5 µM)	68.7	83	65.3	53.3	68	76.4	62	80.1	57.9	74.9	78	71	55.2	87	76.8	82.5	52.8	67.7	57.4	97.8
CCN(CC)CCCCNc1ncc2cc(-c3cc(OC)cc(OC)c3)c(NC(=O)NC(C)(C)C)nc2n1 + Cc1cc([N+](=O)[O-])ccc1NS(=O)(=O)c1cc(Cl)ccc1Cl [FH535] (first compound 0.5 µM, partner dose 5 µM)	57.8	78.4	56.1	52.9	65.2	76.2	70.5	69.1	58.8	65.7	91.9	58.3	79.9	93.9	86.6	77.2	81	73.6	73.5	80.5
COc1ccc2c(c1)CCC1C2CCC2(C)C(NCCCCCCN3C(=O)C=CC3=O)CCC12 (stereo not given) + CC(C)CCN1c2nc(Nc3cc(F)c(O)c(F)c3)ncc2N(C)C(=O)C1C [BID1870] (first compound 2 µM, partner dose 1 µM)	84.9	82.5	80.1	74.8	84.9	54.1	42.5	79.9	61.8	80.8	70.5	67	86.8	81.8	72.5	70.3	99	67.7	68.9	93.3
COc1ccc(-c2ccc3c(N4CCOCC4)nc(N4C[C@@H](C)O[C@@H](C)C4)nc3n2)cc1CO + O=S(=O)(c1ccccc1)N(CC(F)(F)F)c1ccc(C(O)(C(F)(F)F)C(F)(F)F)cc1 [T0901317] (first compound 0.1 µM, partner dose 7 µM)	96.2	67.9	58.3	77.2	64.2	75.4	82.5	76.8	53.6	62.6	71.7	59.2	67.6	75.5	70.7	82.2	78.1	66.9	60.4	76.9
COc1cc(N2CCC(N3CCN(C)CC3)CC2)ccc1Nc1ncc(Cl)c(Nc2ccccc2S(=O)(=O)C(C)C)n1 + CC(C)CCN1c2nc(Nc3cc(F)c(O)c(F)c3)ncc2N(C)C(=O)C1C [BID1870] (first compound 0.4 µM, partner dose 1 µM)	92.9	103	101	69.7	102	63	70.3	88.5	62.8	65	90.6	46.1	75.7	62.3	85.5	79.8	28	62.5	64.1	65.6
N#Cc1c(O)c2c(-c3ccc(-c4ccccc4O)cc3)csc2[nH]c1=O + O=c1cc(-c2cccc3c2Sc2ccccc2S3)oc(N2CCOCC2)c1 [KU55933] (first compound 10 µM, partner dose 5 µM)	84.6	103	129	71.4	96.3	91.2	85.8	101	115	83.1	106	88.5	107	103	135	92.5	95	74.5	92.5	95.5
COc1cc(N2CCC(N3CCN(C)CC3)CC2)ccc1Nc1ncc(Cl)c(Nc2ccccc2S(=O)(=O)C(C)C)n1 + O=c1cc(-c2cccc3c2Sc2ccccc2S3)oc(N2CCOCC2)c1 [KU55933] (first compound 0.4 µM, partner dose 5 µM)	87	62.9	81.9	78.4	74.6	78.1	74.9	108	62.4	57.1	103	68.9	82.2	81.1	86.1	79.7	43.7	56.8	77.3	71.6
Oc1nc(-c2ccc(C(F)(F)F)cc2)nc2c1CSCC2 + c1cc(-c2cnn3cc(-c4ccc(OCCN5CCCCC5)cc4)cnc23)ccn1 [Dorsomorphin] (first compound 10 µM, partner dose 2 µM)	88.2	76.8	97.1	81.3	74.5	67.2	70.5	87.5	68	85.7	84.8	60.5	85.8	70.4	72.1	84.2	46.8	79.4	66.9	80
Oc1cc(-c2nc(-c3ccccc3)[nH]c2-c2ccncc2)ccc1Cl + O=C1NC(=O)/C(=C/c2ccc(-c3ccc(F)cc3O)o2)S1 [AS252424] (first compound 1 µM, partner dose 5 µM)	90	77.3	95.9	72.2	78.7	72.8	93.7	60.4	46.8	16.4	69.5	57.1	86.3	62.7	46.7	66.8	52.1	47.9	82.7	45.4
Cc1cc([N+](=O)[O-])ccc1NS(=O)(=O)c1cc(Cl)ccc1Cl + CC(C)CCN1c2nc(Nc3cc(F)c(O)c(F)c3)ncc2N(C)C(=O)C1C [BID1870] (first compound 5 µM, partner dose 1 µM)	61.2	84.7	75	47.4	61.3	73.9	91.6	56.6	68.1	81.1	72.1	75	72.2	75.9	91.7	61	96.2	61.2	86.1	90.6
COC(=O)c1sccc1S(=O)(=O)Nc1ccc(Nc2ccccc2)cc1OC + COc1ccc(COc2ccc(Cc3cnc(N)nc3N)cc2OC)cc1 [GW2580] (first compound 5 µM, partner dose 5 µM)	118	114	119	94	90.9	93.4	92.6	126	99.2	94	84	79	83.1	101	105	94.9	103	90.8	108	86.8
O=S(=O)(c1ccccc1)N(CC(F)(F)F)c1ccc(C(O)(C(F)(F)F)C(F)(F)F)cc1 + O=C(O)C(=O)Nc1sc2c(c1C(=O)O)CCNC2 [TCS401] (first compound 7 µM, partner dose 8.33333 µM)	107	117	138	99.2	91.4	102	117	102	109	89.8	135	103	80.9	106	93.8	97.9	88.8	94.7	92.6	107
COC(=O)c1sccc1S(=O)(=O)Nc1ccc(Nc2ccccc2)cc1OC + c1cc(-c2cnn3cc(-c4ccc(OCCN5CCCCC5)cc4)cnc23)ccn1 [Dorsomorphin] (first compound 5 µM, partner dose 2 µM)	106	66.1	104	89.9	63.5	81.1	83.8	125	68.8	88.2	87.2	84.7	61.8	62	67.1	69	68.2	79.7	70.6	73.6
COc1cc2ncnc(Nc3ccc(Oc4ccccc4)cc3)c2cc1OC + Oc1nc(-c2ccc(C(F)(F)F)cc2)nc2c1CSCC2 [XAV939] (first compound 10 µM, partner dose 10 µM)	89.3	137	80.4	89.5	59.7	72.9	56.3	107	63.5	98.5	103	54.1	80.7	52.6	64.7	71.8	41.7	56.2	38.6	93.1
Oc1cc(-c2nc(-c3ccccc3)[nH]c2-c2ccncc2)ccc1Cl + Oc1nc(-c2ccc(C(F)(F)F)cc2)nc2c1CSCC2 [XAV939] (first compound 1 µM, partner dose 10 µM)	86.3	86.5	123	87.4	88.9	82.3	96.5	77.9	40.5	40.3	95.2	86.1	87.2	70.4	62.1	66.1	55.2	62.1	65.3	64.4
O=S(=O)(c1ccccc1)N(CC(F)(F)F)c1ccc(C(O)(C(F)(F)F)C(F)(F)F)cc1 + c1cc(-c2cnn3cc(-c4ccc(OCCN5CCCCC5)cc4)cnc23)ccn1 [Dorsomorphin] (first compound 7 µM, partner dose 2 µM)	89.5	56.5	87.5	67.6	54.5	57.4	56.2	121	45.5	64.2	78	50.2	51.8	47	43.1	72.9	48.5	77.4	62.6	65.3
N#Cc1c(O)c2c(-c3ccc(-c4ccccc4O)cc3)csc2[nH]c1=O + CCCCCCCCCCCC1=C(O)C(=O)C=C(O)C1=O [Embelin] (first compound 10 µM, partner dose 6 µM)	80.4	118	156	82.7	98	94.9	93	114	101	92.1	140	108	101	110	115	84.7	102	103	99.7	99.6
N#Cc1c(O)c2c(-c3ccc(-c4ccccc4O)cc3)csc2[nH]c1=O + Oc1cc(-c2nc(-c3ccccc3)[nH]c2-c2ccncc2)ccc1Cl [L779450] (first compound 10 µM, partner dose 1 µM)	93.6	83.8	123	102	94	76.2	89.2	88.4	43.6	38.9	86.3	102	92.3	67.9	70.4	78	64.9	70.1	77.3	65.2
